Results taken from the supplement of paper PMC3334620.
Over roughly 33,000 sequences, “E-score (-0.5 to 0.5)” has its median near -0.013; the highest 2% begin near 0.3. This is one part of the list.

Molecular target: T1, Msn1 (UniProt P22148)
T1 sequence: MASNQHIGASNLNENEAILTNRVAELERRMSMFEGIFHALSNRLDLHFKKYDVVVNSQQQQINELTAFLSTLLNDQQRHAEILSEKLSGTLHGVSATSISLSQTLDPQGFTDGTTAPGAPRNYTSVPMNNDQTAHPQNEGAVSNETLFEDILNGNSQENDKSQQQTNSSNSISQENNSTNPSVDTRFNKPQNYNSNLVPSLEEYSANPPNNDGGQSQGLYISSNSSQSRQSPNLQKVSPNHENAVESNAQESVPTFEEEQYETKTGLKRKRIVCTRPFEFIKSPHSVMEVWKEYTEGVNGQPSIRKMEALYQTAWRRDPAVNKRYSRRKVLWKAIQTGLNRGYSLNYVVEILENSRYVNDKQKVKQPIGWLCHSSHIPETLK
Assay: PBM E-score (8-mer binding enrichment) (E-score (-0.5 to 0.5)); higher = stronger / more preferred TF binding; most listed sequences are background and not binding sites
Settings: protein concentration: 200 nM; construct: GST-full length
Summary of the method: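 PURExpress in vitro transcription/translation supplied GST-tagged yeast transcription factors, either full-length or DNA-binding domain. Applied at about 100-200 nM to universal all-10-mer Agilent arrays double-stranded by primer extension, the bound protein was detected with fluorescent anti-GST. E-scores, modified Wilcoxon-Mann-Whitney statistics, were given by the Universal PBM Analysis Suite to ungapped eight-base words pooled with their reverse complements after masliner normalisation.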

Sequence | PBM E-score
CGATTGTA | 0.088
ATTGCCTC | 0.0949
AACACACG | -0.0269
CATACACC | 0.0379
TATGTTCA | 0.197
AGGCTGCC | -0.169
AACGTTGA | 0.0105
TGCACCAA | -0.214
CTATGCCA | -0.13
GCTAAACA | -0.116
CTGCAGGC | -0.26
CAACCACG | -0.0971
GGTTATAA | 0.163
GCCTCAAA | -0.156
AACCAAGG | 0.107
AAAGGCGT | -0.112
CGAGGATA | -0.111
AAGCCTAT | -0.122
GAAGCGAC | 0.0716
ATCGTGGA | 0.0781
CTAGCGGC | -0.338
GTAGCTAA | -0.198
CAGGCAGA | -0.0321
AGAGGGTG | -0.223
GCCGCGTA | -0.0693

Sequence | PBM E-score
AACTGGTC | 0.0678
AGTAGGCC | -0.0938
CATGCCTC | -0.0203
AGCCTTCG | -0.227
CATGCTCA | -0.0943
CCATAGGG | -0.23
CTAAGTGC | -0.114
TGCAAGCA | -0.138
CGTCATTC | 0.106
AGTCGTCG | -0.218
GTCTGCGA | 0.118
AGATGATC | 0.02
ATGCGCAA | -0.0413
ATTATCCC | 0.161
ACCAGCTA | 0.052
ACTGCCCA | -0.104
CGTGAAAG | 0.241
CAGGACCA | -0.0434
ATCCATGA | -0.133
CCGTGGCC | -0.226
CTGAAAAG | -0.112
GAGCGTAC | -0.0192
ATTGCCAC | 0.0127
AGCGATTA | -0.00328
GAACGTTC | -0.0109

Sequence | PBM E-score
AGCCGAAG | 0.105
CTGAGCAA | 0.108
CCTTGCAC | 0.00743
GAGTGAAA | 0.0469
GACGTCTC | 0.0471
ATCGTGCC | 0.0402
TCCAACCA | 0.0602
ATCTAGGG | -0.0588
AGGCTCCC | -0.276
CAGATCTC | -0.0567
ATTTAGGC | 0.144
AACCAAAC | -0.136
AGCACACC | -0.266
ACCAAAAA | 0.21
ACCCCGGT | -0.218
ATCCTAGG | -0.0767
CCTACAGA | -0.16
AATGGGGT | -0.0154
CTGGAGCC | -0.205
ATTTGGGC | 0.0292
GCCGAGGC | 0.0775
CGTAGTTC | -0.157
GGTTAAAC | 0.00336
AGCGAGAT | -0.00455
CGAGCACG | -0.175

Sequence | PBM E-score
GCAAACCA | 0.0271
ATCGCTTC | 0.0398
CTTAAGGC | -0.2
CTGTTCAC | -0.0749
CATCAATG | 0.00427
CACTGACA | 0.202
AAAGTCTG | 0.177
CTCCGGTA | -0.0362
TCAGCTCA | -0.149
ATGCTTCC | -0.0466
ATTACCCG | 0.0195
CTCCGCTC | -0.0101
ACACGGCA | 0.0639
ACACCTGA | 0.0184
ACAGGCAG | -0.0702
AAGGAATC | -0.0672
GTTAGCGA | 0.228
GCCTTCTA | -0.262
AGCCTCAA | -0.187
ACCTTATC | -0.0985
AAGACGGT | -0.288
CCGGTGGC | -0.24
GTTGTGCA | -0.111
CCCACCCG | -0.0243
AACTTCGT | -0.136

Sequence | PBM E-score
GTTTTTGA | -0.00866
ACCCAATG | -0.214
ACGGCATC | -0.0778
ATGTACTC | 0.124
GCTTCCAA | -0.0663
AAATTCTA | 0.0189
ACGGATCA | 0.102
CCGGTATA | 0.12
AGCGGCGA | -0.0831
GCTTTGCC | -0.351
AGTCAATA | 0.0732
TTAACTAA | 0.237
TCCCCACA | -0.272
GCAAAGTA | -0.00765
AACCTGGG | -0.208
AAGGTTGT | 0.152
CCCGCACA | -0.111
GGGTTCTA | -0.239
AAAGCTTG | -0.0281
AGTGAGGA | -0.0425
AAAAGCCC | -0.0247
AATACCCT | -0.184
CATACGAG | -0.191
CTTCTATA | 0.0349
GCGCAGGA | -0.168

Sequence | PBM E-score
CCTTACCC | -0.265
CGGGCACA | -0.0904
CTCCAGGA | -0.147
GCCGATAA | 0.0805
AACATGTT | -0.0343
CACGGAGA | 0.0495
TAAAATCA | 0.14
CGACCGCC | -0.1
TAATTGGA | 0.123
AAGTTTCG | -0.0881
AAGTGATA | -0.052
ACCTCAAT | 0.0935
CGAATATA | 0.107
CGATCAGA | -0.194
AGTACTTG | 0.147
TTCAGAAA | 0.128
CAAGCCTC | -0.152
CCAAACCC | -0.00239
AACAGGCC | -0.14
ATGTAATG | 0.111
CGGGGCGC | -0.188
ACGGCGGG | -0.105
GGAGCAAA | 0.0273
ATGCGCAG | -0.106
ATAGGATA | 0.0217

Sequence | PBM E-score
AGTCCCTA | 0.123
GGGTCAAA | -0.0608
GTTTCCAA | -0.0509
CTAACAAC | 0.139
ACGTATAG | 0.0562
GACTAAAA | 0.23
AACTTACC | -0.0315
ATGCGGCA | -0.0525
AAAGTAGA | -0.042
GATCGCTA | -0.0252
GCACTGGA | -0.0294
GCCAATCC | -0.122
CTCAGGGA | -0.218
CTCGACGA | -0.0478
CCTGCTCG | -0.177
AGAGTGCC | -0.0595
GCAATTTA | 0.0402
CGGCGGAG | -0.0611
CTAAGGGC | -0.154
GTCTAATA | -0.0152
TCGGGAAA | 0.176
TATGATAA | 0.179
